Measurements reported in the supplement of paper PMC4967469.
pIC50: −log10 of the molar value. A lower IC50 marks a more sensitive line; fits outside the tested doses are given as limits. AUC, from the same fit, is the share of area under the viability curve across the 256-fold dose range; it is 1 without any effect and falls as sensitivity rises. For some of these results: Where the top dose is marked as inferred, it was calculated from the reported fits. For some of these results: Drugs with an entry number were screened twice under separate entries, and the two screens often disagree.

What was measured:
Assay in all cases: Viability of human cancer cell lines after 72 h of drug (GDSC screen)
[1] = compound: COc1cc(F)c(F)c(Nc2ccc(I)cc2F)c1NS(=O)(=O)C1(C[C@H](O)CO)CC1 [RDEA119]; details: top dose 5 µM, top dose inferred
Experimental: (§1)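 Human cancer cell lines in 384-well plates, medium with 10% serum, drug for 72 h over a 256-fold dose range (nine 2-fold or five 4-fold steps up to the top dose). Adherent lines were fixed and stained with the nucleic acid dye Syto60, suspension lines read with resazurin; signal relative to control wells, capped at 0 and 100%. One two-parameter sigmoid per drug and line, fitted in a mixed model over all curves with the slope shared within a line.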

[2] = compound: Fc1cc(-c2ccnc(Nc3ccc(-n4cnc(N5CCOCC5)n4)cc3)n2)cc(N2CCOCC2)c1 [JNK-9L]; details: top dose 5.12 µM; top dose inferred
Experimental: as §1

[3] = compound: C#Cc1cccc(Nc2ncnc3cc(OC)c(OCCCCCCC(=O)NO)cc23)c1 [CUDC-101]; details: top dose 5.12 µM; top dose inferred
Experimental: as §1

[4] = compound: OC[C@H](Cc1ccccc1)Nc1nc(Oc2ccc3c(c2)CCC3)nc2c1ncn2Cc1ccc(-c2ccccc2)cc1 [QS11]; details: top dose 10.24 µM
Experimental: as §1

[5] = compound: NCC(=O)Nc1ccc(-n2nc(C(F)(F)F)cc2-c2ccc3c(ccc4ccccc43)c2)cc1 [OSU-03012]; details: top dose 16 µM; top dose inferred
Experimental: as §1

| Cell Line | AUC ([1]; screen: GDSC drug entry 1014) | pIC50 ([1]; screen: GDSC drug entry 1014) | AUC ([1]; screen: GDSC drug entry 1526) | pIC50 ([1]; screen: GDSC drug entry 1526) | also measured |
| --- | --- | --- | --- | --- | --- |
| Jurkat (T-cell leukaemia, suspension) | 0.99 | < 5.30 | 0.992 | < 5.30 |  |
| K-562 (chronic myeloid leukaemia, suspension) |  |  |  |  | AUC [2]: 0.834; pIC50 [2]: 5.50; AUC [3]: 0.458; pIC50 [3]: 6.61; AUC [4]: 0.929; pIC50 [4]: < 4.99 |
| KARPAS-1106P (B-cell lymphoma, suspension) | 0.945 | < 5.30 | 0.99 | < 5.30 |  |
| KASUMI-1 (acute myeloid leukaemia, suspension) |  |  | 0.64 | 6.12 | AUC [2]: 0.518; pIC50 [2]: 6.45 |
| KATOIII (stomach, semi-adherent) | 0.847 | 5.49 |  |  |  |
| KNS-62 (lung squamous cell carcinoma, adherent) | 0.748 | 5.64 | 0.616 | 6.12 |  |
| KP-1N (pancreas, adherent) | 0.942 | < 5.30 | 0.846 | 5.41 | AUC [2]: 0.611; pIC50 [2]: 6.18; AUC [5]: 0.65; pIC50 [5]: 5.58; AUC [4]: 0.866; pIC50 [4]: 5.00 |
| MEL-HO (melanoma, adherent) | 0.249 | 7.23 | 0.269 | 7.17 |  |
| MHH-CALL-2 (B-cell leukaemia, suspension) | 0.878 | 5.54 | 0.996 | < 5.30 |  |
| MKN7 (stomach, adherent) | 0.729 | 5.74 | 0.924 | < 5.30 |  |
| MM1S (myeloma, suspension) | 0.782 | 5.71 |  |  |  |
| MOLM-16 (acute myeloid leukaemia, suspension) | 0.751 | 5.83 | 0.902 | < 5.30 |  |
| MOLT-16 (T-cell lymphoblastic leukaemia, suspension) | 0.991 | < 5.30 | 0.95 | < 5.30 |  |
| NCC010 (kidney, adherent) | 0.927 | < 5.30 | 0.939 | < 5.30 |  |
| NCI-H146 (small cell lung carcinoma, suspension) | 0.995 | < 5.30 | 0.995 | < 5.30 |  |
| NCI-H508 (large intestine, semi-adherent) | 0.579 | 6.22 | 0.776 | 5.44 |  |
| NCI-H835 (lung carcinoid, suspension) | 0.991 | < 5.30 | 0.987 | < 5.30 |  |
| NCI-H929 (myeloma, suspension) | 0.654 | 6.11 | 0.615 | 6.21 |  |
| NCI-H1105 (small cell lung carcinoma, suspension) | 0.993 | < 5.30 | 0.986 | < 5.30 |  |
| NCI-H1341 (small cell lung carcinoma, suspension) | 0.937 | < 5.30 | 0.955 | < 5.30 |  |
| NCI-H1650 (lung adenocarcinoma, adherent) |  |  | 0.94 | < 5.30 |  |
| NCI-H2066 (small cell lung carcinoma, adherent) | 0.962 | < 5.30 | 0.969 | < 5.30 |  |
| NCI-N87 (stomach, adherent) | 0.904 | < 5.30 | 0.965 | < 5.30 |  |
